B1: H01: human IL-6-binding antibody derived from a library, control; SEQ ID NOs: 36 and 37 (antibody, listed as Homo sapiens)
heavy: QVQLVLSGAEVKKPGASVMVSCKASGYTFTDYYMHWVRQAPGQGLEWMGWINPQSGDTHYAQKFQGRVTMTRDTSVSTGYMQLSSLGSDDTAIYYCARGSLITAAGPPPFEHWGQGTMVTVSS[human IgG1 constant region not written out]
light: SYELTQPPSMSVSPGQTATMPCSGNGLGDKFVYWYQQKPGHSPVAVIYQDAKRPSGVPERFSGSNSGGSTATLTISGAQAMDEADYYCQAWDSGTAVFGTGTRLSILGQPKAAPSVTLFPPSSEELQANKATLVCLISDFYPGAVTVAWKADSSPVKAGVETTTPSKQSNNKYAASSYLSLTPEQWKSHRSYSCQVTHEGSTVEKTVAPTECS
B2: I6NMSC1-3_#03: antibody that binds to human IL-6 in the presence of kynurenine; SEQ ID NOs: 50 and 51 (antibody, listed as Homo sapiens)
heavy: [about 100 residues not written out]GPLVSDAFDIWGQGTMVTVSS[human IgG1 constant region not written out]
light: DIVMTQTPLSLSVTPGQPASISCKSSLSLLNRDGKTFLYWYLQKPGQSPQLLIYEVSSRFSGVPDRFSGSGSGTDFTLQINRVEADDAGVYYCMQGLHLPRTFGLRTKVEIKRTVAAPSVFIFPPSDEQLKSGTASVVCLLNNFYPREAKVQWKVDNALQSGNSQESVTEQDSKDSTYSLSSTLTLSKADYEKHKVYACEVTHQGLSSPVTKSFNRGEC

Legend:
[1] = target: T1, human IL6 (Homo sapiens, UniProt P05231); type: binding; parameters: purchased Kamakura Techno-Science, Inc; conditions: antibody immobilized, 1 μmol/l IL-6 as analyte, 60 seconds, 25° C.
T1 sequence (P05231 30-212): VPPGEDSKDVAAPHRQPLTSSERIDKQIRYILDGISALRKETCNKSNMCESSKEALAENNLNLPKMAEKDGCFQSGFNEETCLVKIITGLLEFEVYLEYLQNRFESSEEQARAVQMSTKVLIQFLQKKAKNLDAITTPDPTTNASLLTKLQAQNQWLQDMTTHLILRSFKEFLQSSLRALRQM
Procedure: Using Biacore T200 (GE Healthcare), A11 was analyzed for its interaction with human IL-6 (Kamakura Techno-Science, Inc.) in antigen-antibody reaction. Sensor chip CM5 (GE Healthcare) was immobilized with an appropriate amount of protein A/G (Invitrogen) by amine coupling. Antibodies of interest were captured by the chip to allow interaction to IL-6 as an antigen. The two types of running buffers used were 10 mmol/1 ACES, 150 mmol/l NaCl, 0.05% (w/v) Tween20, 100 μmol/l kynurenine, pH 7.4, and 10 mmol/1 ACES, 150 mmol/l NaCl, 0.05% (w/v) Tween20, pH 7.4. The interaction with IL-6 as an antigen was assessed at 37° C. The buffer used to dilute IL-6 was the same running buffer as described above.
A diluted solution of human IL-6 and a running buffer as a blank were injected at a flow rate of 5 μl/min for three minutes to allow interaction of human IL-6 with A11 captured on the sensor chip. […] The dissociation constant KD (M) of A11 was calculated for human IL-6 based on the association rate constant ka (1/Ms) and dissociation rate constant kd (1/s), both of which are kinetic parameters calculated from the sensorgram obtained by the measurement. Each parameter was calculated using the Biacore T200 Evaluation Software (GE Healthcare).
Then, the effect of kynurenine concentration on antigen-antibody reaction between A11 and human IL-6 was assessed using Biacore T200 (GE Healthcare). […]

[2] = target: T1, human IL6; assay: IgG ELISA, binding to human IL-6 in the presence or absence of each small molecule, amino acid or amino acid metabolite
Procedure: Three types of antibodies: isolated I6NMSC1-3_A11 (hereinafter abbreviated as A11), and CLB8-F1 and GC413 as controls were subjected to ELISA under the nine conditions described in Table 3. Meanwhile, each small molecule was appropriately prepared at the concentrations shown in Table 3 using the buffers indicated in Table 4. Biotin-labeled human IL-6 was used as the antigen.
First, a StreptaWell 96 microtiter plate (Roche) was coated at room temperature for one hour or more with 100 μl of PBS containing the biotin-labeled antigen. After washing with the Wash buffer to remove unbound antigen from the plate, each well was blocked for one hour or more with 250 μl of the Blocking Buffer. The Blocking Buffer was removed from each well. The purified IgGs were prepared to 2.5 μg/ml in a Sample Buffer containing small molecules at the final concentrations shown in Table 3, and each was aliquoted at 100 μl to each well of the plate. The plate was allowed to stand at room temperature for one hour to allow binding of each IgG to the antigen in each well. After washing with a Wash Buffer containing the small molecules at the final concentrations shown in Table 3, an HRP-conjugated anti-human IgG antibody (BIOSOURCE) diluted with a Sample Buffer containing the same small molecules was added to each well. The plate was incubated for one hour. Following wash with a Wash Buffer containing each small molecule, the TMB single solution (ZYMED) was added to each well. The chromogenic reaction in the solution of each well was terminated by adding sulfuric acid. Then, the developed color was assessed by measuring absorbance at 450 nm. […]
First, a StreptaWell 96 microtiter plate (Roche) was coated at room temperature for one hour or more with 100 μl of PBS containing a biotin-labeled antigen. […] Then, the developed color was assessed by measuring absorbance at 450 nm. […]

[3] = target: T1, human IL6; assay: Phage ELISA, binding to human IL-6 in the presence or absence of small molecule cocktail (SC); conditions: in the presence of SC
Procedure: Culture supernatants containing phages were collected according to a conventional method (Methods Mol. Biol. (2002) 178, 133-145) from single colonies of E. coli obtained by the method described above. The collected culture supernatants were treated by ultrafiltration using NucleoFast 96 ([…]-NAGEL). 100 μl of the collected culture supernatants were added to each well of NucleoFas96 and centrifuged (4500 g for 45 minutes) to remove the flow-through portion. 100 μl of H2O was added to each well, and again the NucleoFast 96 was centrifuged (4500 g for 30 minutes) for washing. After 100 μl of TBS was added, the NucleoFast 96 was allowed to stand for five minutes at room temperature. Finally, a phage suspension was collected from the supernatant in each well.
After addition of TBS or SC/TBS, the purified phages were subjected to ELISA by the following procedure. A StreptaWell 96 microtiter plate (Roche) was coated overnight with 100 μl of TBS containing the biotin-labeled antigen. After the antigen was removed by washing each well of the plate with TBST, the wells were blocked with 250 μl of 2% skim milk-TBS for one hour or more. 2% skim milk-TBS was removed, and then the prepared, purified phages were added to each well. […] Then, the developed color was assessed by measuring absorbance at 450 nm. […]

Row | Molecule | effect of kynurenine concentration on amount of IL-6 binding [1] | absorbance under condition 7 compared to condition 8 ([2]; condition 7 (100 μM kynurenine)) | absorbance under condition 9 as compared to condition 8 ([2]; condition 9 (without small molecules) vs condition 8 (complete small molecule cocktail solution)) | absorbance under other conditions ([2]; remaining single small molecule conditions of Table 3) | binding activity to human IL-6 in the presence of a small molecule cocktail (phage ELISA) [3]
1 | B1 | not altered even if the kynurenine concentration changes | – | – | – | –
2 | B2 | – | comparable | markedly lower | lower | exhibited binding activity

Reference: US11673947B2, “Target tissue-specific antigen-binding molecule” (Chugai Seiyaku Kabushiki Kaisha, priority 2012, dated 2023)
